Assay results published in patent US20090088461A1, “Methods of Treating or Preventing Cardiac Disease Associated With a High Fat Diet” (Synvista Therapeutics, Inc., priority 2007, published 2009).

System: superoxide production in left ventricular homogenates (gp91^phox, RAC-1, heme oxygenase)
Assay: Assessment of superoxide production in HF-fed mice
Assay type: in vivo
Details: HF diet, real time RT-PCR
Description: Adult (8-week-old) male […] mice (Precinct Animal Centre, Melbourne, Australia) and RAGE knockout (KO) mice^17 ([…] al., J Clin Invest. 113:1641-50, 2004) were housed in a temperature-controlled room on a 12-h light-dark cycle. Mice were placed on either a standard diet (AIN-93G; Specialty feeds, Perth AUS; n=10/group) or a high fat (HF) diet formulated to mimic a “Western fast food diet”, (SF05-031, Specialty Feeds; n=10). Both diets contained the same vitamin and calorie content. […] Animals receiving a HF diet were further randomized to receive alagebrium chloride at a dose of 1 mg/kg/day delivered by oral gavage. All groups were followed for 16 weeks. The production and accumulation of superoxide and other ROS is a key mediator of […] injury and cellular dysfunction associated with high fat feeding^5 (Boudina and Abel, Circulation 115:3213-23, 2007). […] Fresh homogenates were then divided to determine superoxide production in the presence of 125 μM NADH and 30 μM of the NADPH oxidase inhibitor, diphenylene iodinium (designated NADH-dependent superoxide production), and superoxide production in the presence of 125 μM NADPH and 30 μM of the respiratory chain inhibitor, rotenone (designated NADPH-dependent superoxide production). This latter activity was not inhibited by L-N^G-Nitroarginine or allopurinol. Each of the samples was processed in triplicate. Following incubation for 60 min at 37° C., before the rate of superoxide anion formation was determined by the addition of 3.8 μM lucigenin (bis-N-methylacridinium nitrate). […] The expression of the NADPH subunits, NOX-2 (gp91^phox), p47^phox, NOX-4 and RAC-1 in left ventricular homogenates, along with the expression of heme oxygenase (HO) and glutathione peroxidase (GPX), key defence mechanism against oxidative stress, were further assessed by real-time quantitative RT-PCR, as detailed above.

## Cc1sc[n+](CC(=O)c2ccccc2)c1C.[Cl-] [alagebrium chloride, 3-(2-phenyl-2-oxoethyl)-4,5-dimethylthiazolium chloride]
RAGE KO mice, RAC-1 expression
  Gene expression relative to 18S (AU/18s): 0.7 ± 0.1 AU/18s
RAGE KO mice, gp91phox expression
  Gene expression relative to 18S (AU/18s): 0.9 ± 0.1 AU/18s
RAGE KO mice, heme oxygenase (HO-1) expression
  Gene expression relative to 18S (AU/18s): not influenced
Wild-type mice, RAC-1 expression
  Gene expression relative to 18S (AU/18s): 1.0 ± 0.2 AU/18s
Wild-type mice, heme oxygenase (HO-1) expression
  Gene expression relative to 18S (AU/18s): not influenced
Wild-type mice, listed as AL, gp91phox gene expression
  Gene expression relative to 18S (AU/18s): 0.8 ± 0.2 AU/18s
Wild-type mice, listed as AL, heme oxygenase gene expression
  Gene expression relative to 18S (AU/18s): 0.1 ± 0.1 AU/18s

Some values that stand alone complete this part of the results.
